Test results published in article PMC4336329 (PLoS ONE, 2015).
Screen size: about 310,000 compounds; about 14,000 (4.5%) showed an effect of 50% or more. Effects have a minus sign here. Some of the results follow.

Target: human ether-à-go-go-related gene (hERG) potassium channel (human, UniProt Q12809)
Assay: primary screen, population patch clamp on CHO cells stably expressing hERG
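Note: peak tail current of the secondary pulse compared with the same well before compound.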

Chain of human ether-à-go-go-related gene (hERG) potassium channel (Q12809 whole entry, looked up): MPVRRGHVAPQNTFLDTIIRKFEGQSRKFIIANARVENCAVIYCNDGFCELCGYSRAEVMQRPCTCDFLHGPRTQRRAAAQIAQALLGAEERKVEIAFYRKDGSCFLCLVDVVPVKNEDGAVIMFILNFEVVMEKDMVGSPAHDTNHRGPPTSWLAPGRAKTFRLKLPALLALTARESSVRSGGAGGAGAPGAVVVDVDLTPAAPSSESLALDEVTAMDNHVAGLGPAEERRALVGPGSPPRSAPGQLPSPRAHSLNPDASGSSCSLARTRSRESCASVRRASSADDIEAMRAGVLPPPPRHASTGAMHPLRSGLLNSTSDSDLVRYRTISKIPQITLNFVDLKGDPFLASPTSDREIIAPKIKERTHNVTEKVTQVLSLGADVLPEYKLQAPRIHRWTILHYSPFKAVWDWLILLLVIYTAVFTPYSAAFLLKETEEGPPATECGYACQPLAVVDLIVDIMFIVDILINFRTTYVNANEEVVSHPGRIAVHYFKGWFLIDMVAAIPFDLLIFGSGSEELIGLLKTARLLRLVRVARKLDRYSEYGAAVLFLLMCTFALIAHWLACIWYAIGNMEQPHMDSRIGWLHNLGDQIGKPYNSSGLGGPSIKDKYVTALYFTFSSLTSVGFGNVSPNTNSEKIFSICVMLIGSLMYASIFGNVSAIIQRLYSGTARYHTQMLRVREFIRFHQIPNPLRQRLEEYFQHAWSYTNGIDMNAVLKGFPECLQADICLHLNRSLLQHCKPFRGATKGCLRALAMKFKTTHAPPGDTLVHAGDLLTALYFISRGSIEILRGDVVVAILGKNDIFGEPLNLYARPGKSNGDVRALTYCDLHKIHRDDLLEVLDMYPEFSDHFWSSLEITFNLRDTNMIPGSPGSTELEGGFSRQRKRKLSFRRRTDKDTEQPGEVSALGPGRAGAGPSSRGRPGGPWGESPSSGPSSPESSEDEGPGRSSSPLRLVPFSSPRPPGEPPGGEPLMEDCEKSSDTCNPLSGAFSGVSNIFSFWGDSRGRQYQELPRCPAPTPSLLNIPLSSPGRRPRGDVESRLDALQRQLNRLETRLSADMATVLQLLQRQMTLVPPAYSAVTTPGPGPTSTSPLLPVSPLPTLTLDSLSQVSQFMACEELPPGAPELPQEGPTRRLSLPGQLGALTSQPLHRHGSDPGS

SMILES	hERG current change (%, negative = inhibition) at 10uM
Cc1nonc1NC(=O)CSc1nc(C23CC4CC(CC(C4)C2)C3)nc2ccccc12	12.6%
CCCCn1c(N)c(N(CCOC)C(=O)CN(C)S(=O)(=O)c2ccc(F)cc2)c(=O)[nH]c1=O	5.39%
CCOCCN1CCN(C2c3ccccc3CSc3ccccc32)CC1.O=C(O)C(=O)O (centres unmarked)	-30.3%
Cc1cccc(Nc2nc(N)nc(CN3CCN(c4ccc(F)cc4)CC3)n2)c1	-73.3%
COc1ccc(N2CCN(Cc3nc4c(c(=O)n(C)c(=O)n4C)n3Cc3cccc(C)c3)CC2)cc1	-52.3%
COc1cccc(/C=C/C(=O)NCc2cn3cc(Cl)ccc3n2)c1	12.5%
COc1ccc(/C=C(\C#N)C(=O)NC2CCS(=O)(=O)C2)cc1OC (centres unmarked)	17.4%
COc1cc(C(=O)Nc2ccc3c(c2)OCCO3)c(-n2cnnn2)cc1OC	-4.59%
COC(=O)c1cc(/C=C/c2ccccc2)on1	1.37%
C/C(=N\Nc1nccnc1Cl)c1ccc(O)c(C)c1	11.4%
CSc1ccccc1OC1CCN(Cc2ccccc2)CC1.Cl	-24.3%
CCOC(=O)CC1=NN(c2ccccc2)C(=O)/C1=C\c1ccc(N(C)C)cc1	24.6%
O=C1CSC(c2ccccc2O)N1Cc1ccccc1 (centres unmarked)	-3.34%
CC(/C=N/NC(=O)CSc1ccccn1)=C\c1ccc(C(C)C)cc1	-9.1%
COCCN1C(=O)N(C)[C@@H](c2ccccc2)C(C(C)=O)=C1C	2.37%
CCCNC(=O)Cn1nc([N+](=O)[O-])c([N+](=O)[O-])c1C	13.7%
CCOc1ccc(NC(=O)CCC(=O)NNC(=O)Nc2cccc(Cl)c2)cc1	20.7%
O=C(CCNC(=O)C1CCN(S(=O)(=O)c2ccc(F)cc2)CC1)Nc1nccs1	15.5%
O=c1[nH]c2ccc(NC(=S)Nc3ccccc3Cl)cc2[nH]1	2.03%
CCn1cc(C(=O)NCCCN(CC(C)C)CC(C)C)c(=O)c2cc(S(=O)(=O)N3CCOCC3)ccc21	-11.3%
Cc1c(/C=N/NC(=O)CNc2ccccc2)c2ccccn2c1C(=O)c1ccc(Cl)cc1	6.9%
Cc1ccc(S(=O)(=O)NC(C(=O)N2CCOCCOCCOCCOCC2)C(C)C)cc1 (centres unmarked)	19.1%
COc1ccc(C(=O)Nc2ccc3c(c2)nc(CCNC(C)=O)n3C)cc1	14.6%
S=C(NC12CC3CC(CC(C3)C1)C2)N1CCOCC1	15.4%
CCC(=O)Nc1c(C(=O)Nc2cccc(OC)c2)oc2ccccc12	10.4%
CCN(CC)c1ccc(NC(=S)NC(=O)C2CCC2)cc1	17%
O=C(c1ccc(N2CC3CC(C2)c2cccc(=O)n2C3)c([N+](=O)[O-])c1)N1CCCC1 (centres unmarked)	-13%

SMILES	hERG current change (%, negative = inhibition) at 10uM
CCCCNC(=O)CCCCn1c(=S)[nH]c2c([nH]c3ccc(OC)cc32)c1=O	31%
CC(C)(C)NC(=O)NC(=O)CN1CCC(Cc2ccccc2)CC1	-8.8%
Cc1sc(NC(=O)CSc2nnc(CCNC(=O)c3cccs3)n2C)nc1-c1ccccc1	-43.8%
COc1ccc(S(N)(=O)=O)cc1C(=O)N(C)CC(=O)Nc1ccc(N2CCOCC2)cc1	20.5%
COc1ccccc1-n1c(SCC(=O)O)nc2c(sc(=S)n2-c2ccccc2C)c1=O	14.5%
CCCn1c(SC(C(=O)Nc2cc(C)ccc2OC)c2ccccc2)nc2ccccc2c1=O (centres unmarked)	-5.09%
COc1ccc(CCNc2cc(N3CCN(C(=O)c4ccc(C)cc4)CC3)ccc2[N+](=O)[O-])cc1OC	8.2%
CCOC(=O)c1c(C)[nH]c(C)c1C(=O)CSc1nnnn1-c1ccccc1	0.494%
Cl.NC(=O)C1CCN(Cc2nnnn2Cc2ccco2)CC1	12.3%
CN(CCc1ccccn1)C(=O)CCC1CCCN(C(=O)CCOc2ccccc2)C1 (centres unmarked)	0.23%
COc1ccc(S(=O)(=O)N2CCCC(C(=O)NCCN3CCOCC3)C2)cc1C (centres unmarked)	-12.4%
COc1cccc(CC(=O)Nc2nc(-c3cccnc3)cs2)c1	-0.027%
Cc1c(CC(=O)NC(C)C)c(=O)oc2cc3c(cc12)CCC(C)(C)O3	14.1%
O=C(NCCCN1CCOCC1)c1ccc(/C=C2\Oc3ccccc3N(Cc3ccccc3F)C2=O)cc1	11.6%
O=C(O)C(=O)O.OCCN(Cc1ccccc1)Cc1ccccc1O	5.17%
Cc1ccc(S(=O)(=O)NCCCC(=O)N2CCC(C)CC2)cc1	-0.448%
CC(C)(Oc1ccc(CCNC(=O)c2ccc(-c3ccc(Cl)cc3)o2)cc1)C(=O)O	10.3%
COc1cc(/C=C/c2noc(-c3ccccc3O)n2)cc(OC)c1OC	9.26%
Cc1ccc(Cl)cc1NC(=O)CC(O)(C(F)(F)F)C(F)(F)F	-5.02%
COC(=O)c1c(C(=O)OC)c(-c2ccc(F)cc2)n2c1CS(=O)(=O)C2	-1.29%
CC(OC(=O)c1ccc(Cl)c(S(=O)(=O)N2CCc3ccccc32)c1)C(=O)Nc1ncc(Cl)cc1Cl (centres unmarked)	-13.2%
COc1ccc2ccccc2c1-c1sc(Nc2ccccc2)n[n+]1-c1ccc(F)cc1.[Cl-]	-57.4%
Cc1c(C(=O)N2CCCCCC2)nnn1-c1nonc1N	1.22%
COc1ccc(C(=O)Nc2nc(-c3ccc([N+](=O)[O-])cc3)c(-c3ccc(OC)cc3)s2)cc1	18.9%
COc1cccc2cc(-c3ccccc3)c(=O)oc12	-4.86%
Oc1ccccc1-c1nc2cnccn2c1Nc1ccc2c(c1)OCCO2	-5.98%
